Reference: paper PMC5895073, “Cell polarity protein Spa2 coordinates Chs2 incorporation at the division site in budding yeast” (PLoS Genetics, 2018)
No constants are given. Whether binding was seen depends on the method and setting. In cells and extracts the contact can be indirect. Some entries that bind do so weakly or less than the wild type.

Amino acid sequences for entries named in this document (tags omitted).
UniProt P19524: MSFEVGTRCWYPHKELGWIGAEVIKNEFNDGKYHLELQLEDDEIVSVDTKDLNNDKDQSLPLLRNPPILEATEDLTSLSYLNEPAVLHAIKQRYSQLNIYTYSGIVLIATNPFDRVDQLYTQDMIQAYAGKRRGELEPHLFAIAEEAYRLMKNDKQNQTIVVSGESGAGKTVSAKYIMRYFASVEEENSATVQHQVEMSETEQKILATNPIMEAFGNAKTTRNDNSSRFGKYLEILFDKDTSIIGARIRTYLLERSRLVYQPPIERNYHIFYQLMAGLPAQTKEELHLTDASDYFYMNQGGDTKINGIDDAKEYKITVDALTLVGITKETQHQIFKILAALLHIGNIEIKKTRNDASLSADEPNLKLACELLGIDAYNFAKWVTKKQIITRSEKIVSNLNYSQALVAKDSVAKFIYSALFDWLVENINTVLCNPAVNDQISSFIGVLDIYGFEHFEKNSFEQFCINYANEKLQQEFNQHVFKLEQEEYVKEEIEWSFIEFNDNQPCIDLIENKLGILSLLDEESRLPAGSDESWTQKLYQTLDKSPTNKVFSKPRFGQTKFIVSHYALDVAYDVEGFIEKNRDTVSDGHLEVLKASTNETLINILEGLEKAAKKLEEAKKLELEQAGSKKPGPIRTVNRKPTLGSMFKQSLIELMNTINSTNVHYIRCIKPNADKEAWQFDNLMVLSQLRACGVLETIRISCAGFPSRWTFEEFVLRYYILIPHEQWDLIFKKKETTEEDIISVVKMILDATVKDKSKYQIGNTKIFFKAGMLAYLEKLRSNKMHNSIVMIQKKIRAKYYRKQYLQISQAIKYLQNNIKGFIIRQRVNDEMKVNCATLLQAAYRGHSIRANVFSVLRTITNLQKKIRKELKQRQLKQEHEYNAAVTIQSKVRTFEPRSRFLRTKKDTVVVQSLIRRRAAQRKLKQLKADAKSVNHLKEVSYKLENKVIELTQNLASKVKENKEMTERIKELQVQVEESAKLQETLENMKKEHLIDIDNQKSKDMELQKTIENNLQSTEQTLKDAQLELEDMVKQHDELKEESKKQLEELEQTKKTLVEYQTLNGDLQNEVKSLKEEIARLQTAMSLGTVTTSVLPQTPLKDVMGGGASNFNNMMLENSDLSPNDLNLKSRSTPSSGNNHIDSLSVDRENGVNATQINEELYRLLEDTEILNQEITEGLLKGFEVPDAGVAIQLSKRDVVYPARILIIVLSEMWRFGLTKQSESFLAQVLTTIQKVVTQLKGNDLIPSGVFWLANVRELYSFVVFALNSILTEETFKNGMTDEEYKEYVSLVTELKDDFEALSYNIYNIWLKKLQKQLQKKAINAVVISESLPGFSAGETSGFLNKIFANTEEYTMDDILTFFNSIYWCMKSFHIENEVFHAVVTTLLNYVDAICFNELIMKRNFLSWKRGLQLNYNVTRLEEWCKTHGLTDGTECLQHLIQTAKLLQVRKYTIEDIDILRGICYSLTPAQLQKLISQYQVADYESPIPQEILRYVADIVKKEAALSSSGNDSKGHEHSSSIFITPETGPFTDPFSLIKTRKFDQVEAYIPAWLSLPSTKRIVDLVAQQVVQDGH

Molecular target: T1, Inn1-TAP (S. cerevisiae) (UniProt P53901)
T1 sequence: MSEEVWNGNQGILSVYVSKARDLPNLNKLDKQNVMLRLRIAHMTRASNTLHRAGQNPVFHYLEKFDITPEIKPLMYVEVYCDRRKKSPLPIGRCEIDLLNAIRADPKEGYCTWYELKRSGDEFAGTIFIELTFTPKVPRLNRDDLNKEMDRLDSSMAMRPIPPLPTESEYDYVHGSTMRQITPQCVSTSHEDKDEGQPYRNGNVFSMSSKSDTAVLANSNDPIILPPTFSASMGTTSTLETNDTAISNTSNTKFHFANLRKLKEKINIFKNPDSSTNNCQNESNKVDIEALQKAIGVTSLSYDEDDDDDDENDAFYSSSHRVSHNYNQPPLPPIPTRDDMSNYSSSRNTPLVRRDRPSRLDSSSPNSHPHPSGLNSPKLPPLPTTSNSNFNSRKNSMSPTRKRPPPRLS
Assay: co-IP; yeast cell extract, cells released 90 min from G1 in YPD at 24°C (cytokinesis); Inn1-TAP on IgG beads; immunoblot

**Q.** Myo2-5FLAG (from UniProt P19524 1-1574) was tested. Which binding did it give?
**A.** binds
